Experimental data as given in PubChem BioAssay AID624296 (National Center for Advancing Translational Sciences (NCATS), 2012).
In all, about 350,000 compounds went through this assay and about 9,900 (2.8%) were called active. This list was built around the results that the source calls inconclusive (neither active nor inactive); the mix of calls is not that of the screen. The call rests on the fitted dose curve; in most records, active means well fitted activation curve with a large enough effect; inconclusive means small, poorly fitted or top-dose-only effect; inactive means no such curve, though single readings can be large or run the other way. Potencies of inconclusive entries are left out as doubtful fits.

Assay: A quantitative high throughput screen for small molecules that induce DNA re-replication in MCF 10a normal breast cells. Further: nearly all actives have a fitted effect of over 50% in size.
Settings: MCF 10A DNA re-replication, Hoechst nuclear intensity, 48 h; series mostly up to 46.1 µM
Potency means the concentration at half of the fitted maximal effect; tags describe the fitted curve by direction and shape.

Row | SMILES | Potency
1 | O=C1c2ccccc2C(=O)c2cc(S(=O)(=O)Nc3ccccc3)ccc21 | inconclusive [activator, single point]
2 | O=C(CCS(=O)(=O)c1ccc(Br)cc1)NCc1ccco1 | inconclusive [activator, partial curve, poor fit]
3 | CNC(=O)NC(=O)C(C)OC(=O)c1oc2ccccc2c1CSc1ccc(Cl)cc1 (configuration not stated) | inconclusive [activator, partial curve]
4 | Oc1ccc(/C=N/n2c3ccccc3c3ccccc32)cc1 | inconclusive [activator, single point]
5 | COc1ccc2c(=O)c(Oc3ccc(C(=O)O)cc3)c(C(F)(F)F)oc2c1 | inactive
6 | O=C(Nc1cc(Cl)cc(Cl)c1)c1coc(=O)c(Br)c1 | inconclusive [activator, single point]
7 | CC1CCN(c2nc3nonc3nc2Nc2ccc(F)cc2)CC1 | inactive
8 | COc1ccc(Br)cc1C(=O)Nc1cccc(NC(=O)c2ccco2)c1 | inactive
9 | O=C(O)c1sccc1Oc1ccc(NS(=O)(=O)c2ccc(Cl)cc2)cc1 | inactive
10 | O=C(C=Cc1cccc(Cl)c1)c1ccccc1 | active: 18.4 µM
11 | Cc1cc2c3c(c1)C(C)CC(C)(C)N3C(=O)C2=C(C#N)C#N (configuration not stated) | inconclusive [activator, full curve, poor fit]
12 | Cc1cc(C)c(C#N)c(Oc2ccccc2Br)n1 | inactive
13 | COc1ccc2ncccc2c1Cc1c(OC)ccc2ncccc12 | inconclusive [activator, single point]
14 | COc1ccc(-n2nc(C(=O)NCC(=O)N3CCN(c4ccccc4OC)CC3)c3ccccc3c2=O)c(OC)c1 | inconclusive [activator, single point]
15 | Cc1ccc(NC(=O)COc2coc(CN3CCc4ccccc43)cc2=O)cc1Cl | inconclusive [activator, single point]
16 | c1ccc(N2CCN(c3nc(NCc4ccco4)c4ccccc4n3)CC2)cc1 | inconclusive [activator, single point]
17 | OC(c1ccccc1)c1nc2ccccc2s1 (configuration not stated) | inactive
18 | COc1ccc2c(c1)c(CC(=O)Nc1ccc(C(C)=O)cc1)c(C)n2C(=O)c1ccc(Cl)cc1 | inactive
19 | CCOC(=O)c1cnn(-c2ccc(Cl)cc2)c1C1CCN(C(=O)OC(C)(C)C)CC1 | inconclusive [activator, single point]
20 | CCn1c(O)c(C=Nc2ccccc2)sc1=O | inconclusive [activator, single point]
21 | Cc1ccc(-c2nnc(SCC(=O)N/N=C/c3c(C)nn(-c4ccccc4)c3C)n2-c2ccccc2)cc1 | inconclusive [activator, full curve, poor fit]
22 | O=c1oc2ccccc2cc1-c1csc(Nc2ccc(O)cc2)n1 | active: 14.6 µM
23 | CC(=O)c1cccc(N2C(=O)C3C4CCC(C4=C(C)C)C3C2=O)c1 (configuration not stated) | inactive
24 | CCN(CC)CCn1c2ccc(Cl)cc2c2nc(C)sc21 | inconclusive [activator, partial curve, poor fit]

Row | SMILES | Potency
25 | O=C(N/N=C/c1cc(Br)ccc1O)C(=O)Nc1ccccc1OC(F)(F)C(F)F | inconclusive [activator, partial curve, poor fit]
26 | CC(=O)c1c(C)[nH]c(-c2ccccc2)c1C | inactive
27 | CCOc1ccc(CN(C)CC(=O)Nc2ccccc2C(=O)NC2CC2)cc1 | inactive
28 | COc1ccc(Cn2c(SCc3cc(C)ccc3C)nc3cc(OC)c(OC)cc3c2=N)cc1 | active: 3.66 µM
29 | CCCn1c(N)c(C(=O)CSc2nc(C)cs2)c(=O)n(C)c1=O | inconclusive [activator, single point]
30 | CN1CCc2nc3ccccc3c(C(=O)OCC(=O)N(CCC#N)c3ccccc3)c2C1 | inactive
31 | CCOC(=O)C1=C(C)NC(=O)NC1c1cc2c(cc1Br)OCO2 (configuration not stated) | inconclusive [activator, partial curve, poor fit]
32 | O=C(Nc1ccc(-c2nc3ccccc3o2)c(O)c1)c1cc(-n2cnnc2)ccc1Cl | inconclusive [activator, single point]
33 | CC(=O)Nc1ccc(/C=N/NC(=S)NC(C)C)cc1 | inactive
34 | O=C(CCCCCN1C(=O)c2ccccc2C1=O)Oc1ccc2c3c(c(=O)oc2c1)CCC3 | inactive
35 | COc1ccc2c(c1)CCc1cn3nc(C)cc3nc1-2 | inconclusive [activator, single point]
36 | Cc1ccnc2nc(C(=O)OCC(=O)N3CC(C)CC(C)C3)nn12 (configuration not stated) | inactive
37 | CSc1ccc(/C=N/NC(=O)c2sccc2C)cc1 | inactive
38 | COc1ccc(-n2cnc3cc(NCc4ccccn4)ccc32)cc1 | inconclusive [activator, partial curve, poor fit]
39 | COc1ccc(-c2nnc3n(CCc4ccccc4)c(=O)c4ccccc4n23)c(OC)c1 | active: 20.6 µM
40 | CN(C(=O)CSc1nnc(-c2ccc(F)cc2)c2ccccc12)C1CCS(=O)(=O)C1 (configuration not stated) | inactive
41 | COc1ccc(/C=N/Nc2cc(N3CCCC3)nc(N3CCCC3)n2)cc1 | active: 18.4 µM
42 | NC(CCC(=O)N[C@@H](CS)C(=O)NCC(=O)O)C(=O)O (some centres not stated) | inactive
43 | CCOc1ccccc1N=Nc1c(C)[nH]n(-c2ccccc2)c1=O | inconclusive [activator, partial curve]
44 | Cc1ccc(NC(=O)CN(c2ccc(Cl)cc2)S(=O)(=O)c2cc([N+](=O)[O-])ccc2Cl)cc1 | inconclusive [activator, full curve, poor fit]
45 | CC(=O)c1cc2c(cc1NS(=O)(=O)c1ccc(C)cc1)OCO2 | inconclusive [activator, single point]
46 | CC(=O)Nc1ccc(N2C(C(C)=O)=NN(c3ccc(Cl)cc3)C2c2sccc2C)cc1 (configuration not stated) | active: 23.1 µM
47 | CC(C)Oc1cccc(C(=O)NC(=S)N2CCN(c3ccc(C(F)(F)F)cc3[N+](=O)[O-])CC2)c1 | inconclusive [activator, partial curve, poor fit]
